The campaign covered roughly 310,000 compounds. About 14,000 (4.5%) showed an effect of 50% or more. Effects have a minus sign here. This is one part of the list.
Molecular target: human ether-à-go-go-related gene (hERG) potassium channel (human, UniProt Q12809)
Experiment: primary screen, population patch clamp on CHO cells stably expressing hERG
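Note: peak tail current of the secondary pulse compared with the same well before compound.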

human ether-à-go-go-related gene (hERG) potassium channel, sequence (Q12809 whole entry, looked up): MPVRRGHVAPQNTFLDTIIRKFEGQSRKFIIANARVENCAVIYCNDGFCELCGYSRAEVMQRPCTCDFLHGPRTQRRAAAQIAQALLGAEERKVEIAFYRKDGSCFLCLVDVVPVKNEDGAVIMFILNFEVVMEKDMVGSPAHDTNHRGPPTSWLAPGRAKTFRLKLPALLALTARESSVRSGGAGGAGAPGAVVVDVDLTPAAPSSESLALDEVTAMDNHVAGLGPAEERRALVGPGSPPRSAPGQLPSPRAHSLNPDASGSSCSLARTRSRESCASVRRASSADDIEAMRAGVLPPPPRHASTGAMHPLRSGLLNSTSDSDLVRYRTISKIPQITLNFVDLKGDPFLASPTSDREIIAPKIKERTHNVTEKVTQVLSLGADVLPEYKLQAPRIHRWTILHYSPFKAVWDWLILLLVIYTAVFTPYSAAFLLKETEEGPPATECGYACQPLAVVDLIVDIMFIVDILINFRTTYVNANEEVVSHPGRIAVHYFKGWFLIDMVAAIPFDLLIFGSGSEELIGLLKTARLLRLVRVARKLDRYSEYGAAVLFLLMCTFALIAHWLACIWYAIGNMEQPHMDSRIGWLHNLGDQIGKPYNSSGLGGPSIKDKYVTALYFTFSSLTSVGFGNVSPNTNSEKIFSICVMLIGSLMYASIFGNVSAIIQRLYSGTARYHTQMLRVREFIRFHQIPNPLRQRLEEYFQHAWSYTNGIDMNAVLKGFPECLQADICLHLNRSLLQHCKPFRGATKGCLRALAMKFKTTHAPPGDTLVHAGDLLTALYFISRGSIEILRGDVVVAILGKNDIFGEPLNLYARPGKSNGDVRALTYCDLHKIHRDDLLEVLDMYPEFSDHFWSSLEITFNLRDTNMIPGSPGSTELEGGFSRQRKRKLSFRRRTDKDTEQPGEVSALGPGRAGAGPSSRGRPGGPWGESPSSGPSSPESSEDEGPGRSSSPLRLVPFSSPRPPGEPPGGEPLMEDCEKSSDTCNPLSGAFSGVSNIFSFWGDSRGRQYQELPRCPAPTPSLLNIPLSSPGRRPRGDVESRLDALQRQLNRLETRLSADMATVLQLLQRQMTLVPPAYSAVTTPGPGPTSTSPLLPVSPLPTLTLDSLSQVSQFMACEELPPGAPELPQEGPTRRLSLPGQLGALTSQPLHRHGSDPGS

First: CCNC(=S)N1CCCCC1CO (stereo not shown)
Second: CCCN1CCC(NC(=O)C2CCCCC2C(=O)O)CC1 (stereo not shown)
The “hERG current change (%, negative = inhibition) at 10uM” value of the first is higher: 3.85% for the first, -1.65% for the second.

Going from `CN(C)c1ccc(C(=O)c2ccccc2C(=O)O)cc1[N+](=O)[O-]` to `COc1ccc(C(=O)NCc2ccccn2)cc1[N+](=O)[O-]`, the “hERG current change (%, negative = inhibition) at 10uM” value falls from 3.29% to -0.439%.

Going from `Cc1noc(C)c1C(=O)Nc1ccccn1` to `Cc1onc(-c2c(F)cccc2Cl)c1C(=O)OCC(=O)NC1CC1`, the “hERG current change (%, negative = inhibition) at 10uM” value rises from -8.39% to 1.98%.

Going from `Fc1ccc(-c2nnsc2Sc2ccccn2)cc1` to `COc1ccc(NC(=O)CSc2ccccn2)cc1`, the “hERG current change (%, negative = inhibition) at 10uM” value rises from 13.5% to 21.5%.

First: CC1(C)CC(=O)C2=C(C1)NCN(Cc1ccc3c(c1)OCO3)C2
Second: O=C(CSc1ccccn1)Nc1ccc2c(c1)OCO2
The “hERG current change (%, negative = inhibition) at 10uM” value of the first is lower: -1.04% for the first, 4.65% for the second.

Going from `COc1cc(CNc2ccccc2SC)ccc1O` to `Cc1cc(OCC(=O)Nc2ccccc2F)nc(C(C)C)n1`, the “hERG current change (%, negative = inhibition) at 10uM” value falls from 12.8% to 5.67%.

First: Cc1ccc2nc(-c3ccc(NS(C)(=O)=O)cc3)cc(-c3ccccc3)c2c1
Second: CCC1(c2ccc(-c3ccccc3)cc2)C(=O)NC(=O)NC1=O
The “hERG current change (%, negative = inhibition) at 10uM” value of the first is lower: 9.27% for the first, 13.3% for the second.

Compared with `COc1cc(C(C)=O)ccc1Oc1ncnc2c1cnn2-c1ccc(C)c(C)c1`, `CCOC(=O)c1cnn(-c2cc(Oc3ccccc3C)ncn2)c1N` is higher in “hERG current change (%, negative = inhibition) at 10uM” value: 7.86% for the first, 14.4% for the second.

Compared with `CCOc1ccccc1Oc1coc2cc(OC(=O)c3ccco3)ccc2c1=O`, `CCOc1cc2[nH]c(=O)n(CCCC(=O)N(C)Cc3ccccc3)c(=O)c2cc1OCC` is higher in “hERG current change (%, negative = inhibition) at 10uM” value: -10.7% for the first, -1.74% for the second.

Going from `O=C(Nc1ccc(Cl)cc1)c1ccsn1` to `NC(=O)c1cccc(NC(=O)Nc2ccc(Cl)cc2)c1`, the “hERG current change (%, negative = inhibition) at 10uM” value rises from 7.58% to 20.2%.

Going from `Cl.NC(=O)C1CCN(C(c2ccccc2F)c2nnnn2Cc2ccco2)CC1` (stereo not shown) to `O=C(CSc1nnc(-c2ccco2)n1Cc1ccccc1)OC1CCCCC1`, the “hERG current change (%, negative = inhibition) at 10uM” value falls from 11.1% to -92.1%.

Going from `CSc1sc(C(=O)Nc2ccc(F)cc2F)c2c1C=CCC2` to `Cc1cccc(NC(=O)c2cc[n+]([O-])cc2)c1C`, the “hERG current change (%, negative = inhibition) at 10uM” value rises from 1.63% to 23.6%.

Going from `O=C(NCCc1ccccc1)NC1CCCCC1` to `O=C(c1ccccc1)N1CCCC(C(=O)N2CCCCC2)C1` (stereo not shown), the “hERG current change (%, negative = inhibition) at 10uM” value falls from 13.3% to 4.5%.

Compared with `Cc1ccc(C)c(N2CCN(C(=O)CCNS(=O)(=O)c3ccc4c(c3)oc(=O)n4C)CC2)c1`, `Cc1ccc(S(=O)(=O)NCC(=O)N2CCCCC2)cc1` is higher in “hERG current change (%, negative = inhibition) at 10uM” value: -27.2% for the first, 12.5% for the second.

Going from `CCCNC(=O)NC(=O)c1cnccc1C(F)(F)F` to `O=C(NCc1ncc(C(F)(F)F)cc1Cl)Nc1ccccc1`, the “hERG current change (%, negative = inhibition) at 10uM” value falls from 13.4% to 3.57%.

Compared with `CCN(CC)S(=O)(=O)c1cccc(C(=O)OCC(=O)c2ccc3c(c2)NC(=O)CO3)c1`, `CCN(CC)S(=O)(=O)c1cccc(C(=O)N/N=C/c2ccc([N+](=O)[O-])o2)c1` is lower in “hERG current change (%, negative = inhibition) at 10uM” value: -15.3% for the first, -37% for the second.

Compared with `CCN1C(=S)N[C@@H](CCc2ccccc2)[C@H](C(=O)OC)[C@H]1C`, `CCN(CC(=O)NCCc1ccccc1)S(=O)(=O)c1ccccc1` is lower in “hERG current change (%, negative = inhibition) at 10uM” value: 0.0847% for the first, -13.3% for the second.

Going from `Cc1n[nH]c(=S)n(NC(=O)CC(=O)Nn2c(=S)[nH]nc(C)c2=O)c1=O` to `Cc1noc(C)c1CN1C(=O)NC2(CCCCCCC2)C1=O`, the “hERG current change (%, negative = inhibition) at 10uM” value falls from 45.4% to 0.244%.

Compared with `O=C(NCCCO)NC12CC3CC(CC(C3)C1)C2`, `CCOCCCNC(=O)c1oc2ccc3c(c2c1C)C(O)CC(C)(C)O3` (stereo not shown) is higher in “hERG current change (%, negative = inhibition) at 10uM” value: -9.93% for the first, 16.1% for the second.

First: O=C(N/N=C/c1cc([N+](=O)[O-])ccc1O)/C(=C\c1cccs1)NC(=O)c1ccccc1
Second: COc1ccccc1/C=C(/C(=O)OCC(=O)Nc1ccccc1C)c1ccccc1
The “hERG current change (%, negative = inhibition) at 10uM” value of the first is lower: -41.2% for the first, 9.14% for the second.

First: CNCCc1ccc(OC)c(OC)c1
Second: COc1ccc(CCNC(=O)Cn2ccc3cc(S(=O)(=O)N4CCCC4)ccc32)cc1OC
The “hERG current change (%, negative = inhibition) at 10uM” value of the first is higher: 19.4% for the first, -42.9% for the second.

First: Cc1ccc(-n2cc(CNCCCn3cccn3)c(-c3cccc(C)c3)n2)cc1
Second: CCc1ccc(CN(C)C(=O)c2cc(COc3ccc(-n4cncn4)cc3)on2)cc1
The “hERG current change (%, negative = inhibition) at 10uM” value of the first is lower: -71.6% for the first, -42.5% for the second.

Going from `CCNC(=S)NNC(=O)c1csc(CC)c1` to `COc1ccc(C(=O)NC(=S)NCCO)cc1Br`, the “hERG current change (%, negative = inhibition) at 10uM” value rises from -4.58% to 4.48%.

Compared with `O=S(=O)(c1cc(Cl)ccc1Cl)N1CCC2(CC1)OCCO2`, `Cc1ccc(Cl)cc1NS(=O)(=O)c1cn(C)nc1C` is higher in “hERG current change (%, negative = inhibition) at 10uM” value: -42.1% for the first, 2% for the second.

Going from `COc1ccc(N2CCN(C(CNC(=O)C(=O)NCc3ccc4c(c3)OCO4)c3ccco3)CC2)cc1` (stereo not shown) to `COC(=O)NCC(c1cccnc1)N1CCN(c2ccccc2F)CC1` (stereo not shown), the “hERG current change (%, negative = inhibition) at 10uM” value rises from -0.557% to 4.3%.

Going from `COc1ccc2c(c1OC)CCC2=O` to `COc1cccc(C(=O)N2CCOCC2)c1OC`, the “hERG current change (%, negative = inhibition) at 10uM” value rises from -15.5% to 16.8%.

Going from `Cc1ccc(-c2nc(SCC(=O)Nc3ccccc3OC(F)F)c3c(C)c(C(=O)O)sc3n2)cc1` to `CC/C(=N\NC(=S)Nc1cc(C)ccc1C)c1ccc(OC(F)F)cc1`, the “hERG current change (%, negative = inhibition) at 10uM” value falls from 11.2% to -0.587%.

Going from `C=Cn1cc[n+](CC(=O)c2ccc(Br)s2)c1.[Br-]` to `COC(=O)Nc1nn(Cc2ccccc2F)cc1Br`, the “hERG current change (%, negative = inhibition) at 10uM” value rises from 9.47% to 17.6%.

Going from `Cc1ccc(NC(=O)CN2CCC(NC(=O)C3CCCCC3)CC2)c(Br)c1` to `Cc1ccc(NC(=O)C2=C(C(=O)O)CCCC2)cc1Br`, the “hERG current change (%, negative = inhibition) at 10uM” value rises from -11.2% to 18%.

Going from `CCOC(=O)C1=C(C)N=C2SC(C)C(=O)N2C1c1ccc(OCC)c(OCC)c1` (stereo not shown) to `CCC(CC)=N/N=C/c1c(O)n(CC)c2cc(C3=NNC(=O)CC3)ccc12`, the “hERG current change (%, negative = inhibition) at 10uM” value rises from 1.51% to 15.5%.

Going from `CCN(CC)CCCNC(=O)CN1N=C(c2ccc(OC)cc2)CCC1=O` to `CCN(CCCNC(=O)Cn1cc2c(n1)CCCC2)c1cccc(C)c1`, the “hERG current change (%, negative = inhibition) at 10uM” value falls from 14.5% to -7.68%.

Compared with `NS(=O)(=O)c1ccc(CNC(=O)NC2(c3ccccc3)CC2)cc1`, `COc1ccccc1CCC(=O)OCC(=O)Nc1ccc(S(N)(=O)=O)cc1` is higher in “hERG current change (%, negative = inhibition) at 10uM” value: 9.76% for the first, 15.4% for the second.

Going from `NC(=O)c1ccc(Nc2ccc([N+](=O)[O-])cc2[N+](=O)[O-])cc1` to `O=C(N/N=C/c1ccc([N+](=O)[O-])cc1)c1[nH]ncc1Br`, the “hERG current change (%, negative = inhibition) at 10uM” value rises from -39.2% to 12.6%.

Compared with `O=C(CN1CCOCC1)N/N=C/c1ccc(-c2ccc(Br)cc2)o1`, `Cc1oc(-c2ccc(Cl)cc2)nc1CS(=O)CC(=O)NCCN1CCCC1` (stereo not shown) is higher in “hERG current change (%, negative = inhibition) at 10uM” value: -67.1% for the first, -18.2% for the second.

Going from `CC1CC2(CCCC2)Nc2ccc(F)cc21.Cl` (stereo not shown) to `Oc1cccc(-c2nc3c4c(ncn3n2)-c2ccccc2CC42CCCC2)c1`, the “hERG current change (%, negative = inhibition) at 10uM” value falls from 13.2% to -7.64%.

First: Cn1cc(S(=O)(=O)Nc2cccc3ccccc23)c(=O)n(C)c1=O
Second: CCc1ccccc1NS(=O)(=O)c1ccc2[nH]cc(C(=O)NCC3CCCO3)c(=O)c2c1 (stereo not shown)
The “hERG current change (%, negative = inhibition) at 10uM” value of the first is lower: -39.1% for the first, 14.3% for the second.

Going from `Cc1cccc(/C=C/C(=O)c2ccc([N+](=O)[O-])o2)c1` to `Cc1cc(NC(=O)c2cccc(S(=O)(=O)N3c4ccccc4CC3C)c2)no1` (stereo not shown), the “hERG current change (%, negative = inhibition) at 10uM” value falls from 12.8% to -7.3%.

Compared with `CCN(CC)P(=O)(c1ccccc1)c1c(C)nc2ccccn12` (stereo not shown), `CCC(C)c1ccccc1NC(=O)c1cccnc1` (stereo not shown) is higher in “hERG current change (%, negative = inhibition) at 10uM” value: -3.24% for the first, 12.5% for the second.

Going from `CCOc1ccc(S(=O)(=O)N2CCN(Cc3ccccc3)CC2)cc1` to `O=C(NCCN1CCN(Cc2ccccc2)CC1)Nc1cc(Cl)cc(Cl)c1`, the “hERG current change (%, negative = inhibition) at 10uM” value falls from 1.61% to -75.2%.

Compared with `CN(C)/C=C1\C(=O)N(c2ccc(Oc3ccccc3)cc2)CS1=O` (stereo not shown), `O=C(/C=C/c1ccc(OC(F)F)cc1)OCC(=O)N1CCC(c2ccccc2)=N1` is higher in “hERG current change (%, negative = inhibition) at 10uM” value: -14.4% for the first, 17.2% for the second.

First: O=C1CCC(C(=O)OCc2c(Cl)cccc2Cl)N1 (stereo not shown)
Second: COC(=O)C1CN(C#N)N(c2ccc(Cl)cc2)C12c1ccccc1-c1ccccc12 (stereo not shown)
The “hERG current change (%, negative = inhibition) at 10uM” value of the first is higher: 6.58% for the first, 6.03% for the second.

Compared with `O=C(NNS(=O)(=O)c1ccc([N+](=O)[O-])cc1)c1cnn(-c2ccccc2)c1-n1cccc1`, `Cc1nc(C)n(C(C)CNS(=O)(=O)c2ccc(Cl)cc2)n1` (stereo not shown) is higher in “hERG current change (%, negative = inhibition) at 10uM” value: 10.7% for the first, 13.9% for the second.

Going from `Cc1cc(N2CCN(c3cccc(C)c3C)CC2)nc(-c2ccccc2)n1` to `COc1cccc2cc(-c3nnc(SCC(=O)Nc4nc(C)cs4)n3C)oc12`, the “hERG current change (%, negative = inhibition) at 10uM” value rises from -10.1% to 6.56%.

First: CN(C)N1C(N)=C(C#N)C(c2ccsc2)C2=C1CC(C)(C)CC2=O (stereo not shown)
Second: COc1ccc(C(=O)c2sc3nc(C)cc(-c4cccs4)c3c2N)cc1OC
The “hERG current change (%, negative = inhibition) at 10uM” value of the first is higher: -3.13% for the first, -3.33% for the second.

Going from `CCCC(=O)NC(=S)Nc1ccc(N2CCN(C(=O)c3cccs3)CC2)cc1` to `O=C1CCCCN1CCC(=O)N1CCCC(N2CCN(c3ccccc3)CC2)C1` (stereo not shown), the “hERG current change (%, negative = inhibition) at 10uM” value falls from -4.09% to -47.1%.

With `CCn1c(C)[n+](CC(O)COCC2CC=CCC2)c2ccccc21.[I-]` (stereo not shown) the “hERG current change (%, negative = inhibition) at 10uM” value was 2.22%.
